24 sequences from the supplement of paper PMC10338343 can be followed below.

± gives the standard deviation. This is a selection; strong and weak results do not stand in their true shares.

For one assay, the system named is MIWI (PIWIL1) piRISC loaded with L1MC piRNA (30 nt). Briefly: pre-steady-state target cleavage rate (min^-1); MIWI and MILI are mouse PIWI proteins and EfPiwi is from a freshwater sponge; tags in brackets are library labels; higher = faster piRNA-guided slicing of the target. To be noted: guide: L1MC piRNA 5'p-UAACUAAAUACUAUGCAAGCUGUAGGUCCU; auxiliary factor: 500 nM mouse GTSF1. On the procedure: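 Cleave-'n-Seq: a library of target RNAs (target site embedded in constant flanks, ACAGCATTCCGCGTTAGTGATATCCG... 5' flank; DNA-blocked outside the site) at 0.1 nM was incubated with 1 nM active mouse MILI or MIWI piRISC (synthetic 5'-monophosphorylated piRNA guide) with or without 500 nM mouse GTSF1 at 33 °C for 1 min to 16 h. Uncleaved targets were sequenced and normalised to non-target controls, and the pooled three trials were fitted to a burst-and-steady-state model to give the pre-steady-state cleavage rate (min^-1; k3 is constrained to at most 1e-4). Sequence is the target site only; target names encode pairing extent (gX:gY) and contiguous / 1-mismatch / 2-mismatch / bulge geometry. Fits with R² ≤ 0 are excluded.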
As to UCCACCUACAGCUUGAAUAGUAUUUAGUUA, the “pre-steady-state target cleavage rate” value turned out to be 1.01 ± 0.035.
With UCCUGGAUGAGGUUGCAUAGUAUUAAGUUA, the “pre-steady-state target cleavage rate” value was 0.0252 ± 0.0099.
On the same count and under the same terms, with UCCUGGAACAGCUUGGAUAGUAUUAAGUUA the figure was 0.43 ± 0.068; with UCGACCAACAGCUUGCAUAGUUUUUAGUUA, 0.452 ± 0.023.
With UCCACCUUCAGCUUGCAUAGUAUUUAGAUA, the “pre-steady-state target cleavage rate” value is 0.216 ± 0.026.
UGGACCUACAGCUUGCAUAGAUAUUUAGUUA: the “pre-steady-state target cleavage rate” value is 0.0054 ± 0.003.
Consider UCCUCCUACAGCAUCCAUAGUAUUUAGUUA, for which the “pre-steady-state target cleavage rate” value was determined as 0.168 ± 0.037.
Still for that read-out and setting: then UCCUGCUACAGCUAGCAUAGUAUUUACAAA, with 0.234 ± 0.049; and UCCUGGAACAGGAUGCAUAGUAUUUAGUAA, with 0.202 ± 0.027; and UCCUGGAUGUCCUUGCAUAGUAUUUAGGUUA, with 0.0387 ± 0.0082.
As to UGGACCUACAGACUUGCAUAGUAUUUAGUUA, the “pre-steady-state target cleavage rate” value turned out to be 1.13 ± 0.1.
For UCCUGGAUGUGCUUGCAAUGUAUUUAGUAA, the “pre-steady-state target cleavage rate” value worked out at 0.00378 ± 0.0032.
The same measure, in the same setting: then UGGACCUACAGCAUGCUUAGUAUUUAGUUA, with 0.877 ± 0.056; and UCCUGGUACAGCUUGCAUAGUUAUUAGAAA, with 0.037 ± 0.014; and UCCUGGAUGAGCUUGCAUAGCUAUUUAGUUA, with 0.00386 ± 0.0029.
As for UCCUGGAACAGCUUUCAUAGUAUUUAGUUA, the “pre-steady-state target cleavage rate” value was 0.453 ± 0.026.
Regarding UGGACCUACAGCUUGCAUAGUAUCUUAGUUA, the “pre-steady-state target cleavage rate” value stood at 1.14 ± 0.081.
Still for that read-out and setting: with AGGACCAAGAGCUUGCAUAGUAUUUAGUUA the figure was 1.25 ± 0.061.
On to AGGACCUACAGGUUGGAUAGUAUUUAGUUA, for which the “pre-steady-state target cleavage rate” value was 1.24 ± 0.079.
On the same count and under the same terms, then UCCUGGAACAGCUUGCAUAGUAUAUACUUA, with 0.103 ± 0.021; and UCCUGGAUCAGCUUGCAUAGAAUUUUCAAA, with 0.00664 ± 0.005.
Take UCGACCUACAGCUUGCAUAGUAUUUAAGUUA: the “pre-steady-state target cleavage rate” value amounted to 1.03 ± 0.059.
With UGGACCUACAGCUUGCAUAGUUAAUAGUUA, the “pre-steady-state target cleavage rate” value was 0.0804 ± 0.0098.
With AGGACCUACAGCUUGCAUAGUAUUAACUUA, the “pre-steady-state target cleavage rate” value is 0.263 ± 0.046.

Staying with this assay, now noted: guide: L1MC piRNA 5'p-UAACUAAAUACUAUGCAAGCUGUAGGUCCU; auxiliary factor: none (no GTSF1).
Take UCCACCUACAGCUUGAAUAGUAUUUAGUUA: the “pre-steady-state target cleavage rate” value was found to be 0.0277 ± 0.0053.
For the sequence UCCUGGAACAGCUUGGAUAGUAUUAAGUUA, the “pre-steady-state target cleavage rate” value worked out at 0.0159 ± 0.0041.
Same read-out and setting: with UCGACCAACAGCUUGCAUAGUUUUUAGUUA the figure was 0.0425 ± 0.01; with UCCACCUUCAGCUUGCAUAGUAUUUAGAUA, 0.015 ± 0.0032; with UCCUGGAUGUCCUUGCAUAGUAUUUAGGUUA, 0.00647 ± 0.0028.
On to UGGACCUACAGACUUGCAUAGUAUUUAGUUA, for which the “pre-steady-state target cleavage rate” value was determined as 0.0446 ± 0.0075.
With UGGACCUACAGCAUGCUUAGUAUUUAGUUA, the “pre-steady-state target cleavage rate” value amounted to 0.0147 ± 0.0037.
With UCCUGGAACAGCUUUCAUAGUAUUUAGUUA, the “pre-steady-state target cleavage rate” value came out at 0.019 ± 0.0045.
The same measure, in the same setting: then UGGACCUACAGCUUGCAUAGUAUCUUAGUUA, with 0.0298 ± 0.0075; and AGGACCAAGAGCUUGCAUAGUAUUUAGUUA, with 0.0743 ± 0.015; and AGGACCUACAGGUUGGAUAGUAUUUAGUUA, with 0.0408 ± 0.0067.
The same measure, in the same setting: with UCCUGGAACAGCUUGCAUAGUAUAUACUUA the figure was 0.00868 ± 0.0035.
Turning to UCGACCUACAGCUUGCAUAGUAUUUAAGUUA, the “pre-steady-state target cleavage rate” value amounted to 0.0887 ± 0.021.
Regarding UGGACCUACAGCUUGCAUAGUUAAUAGUUA, the “pre-steady-state target cleavage rate” value was found to be 0.00614 ± 0.0024.
For the sequence AGGACCUACAGCUUGCAUAGUAUUAACUUA, the “pre-steady-state target cleavage rate” value turned out to be 0.00949 ± 0.0032.
